# B1: 3x Flag Matrin 3 wild-type (human) [human] / Ddx39b (UAP56) of NSC-34 cells [mouse (endogenous in NSC-34)] (parent complex)
# chain 1: MSKSFQQSSLSRDSQGHGRDLSAAGIGLLAAATQSLSMPASLGRMNQGTARLASLMNLGMSSSLNQQGAHSALSSASTSSHNLQSIFNIGSRGPLPLSSQHRGDADQASNILASFGLSARDLDELSRYPEDKITPENLPQILLQLKRRRTEEGPTLSYGRDGRSATREPPYRVPRDDWEEKRHFRRDSFDDRGPSLNPVLDYDHGSRSQESGYYDRMDYEDDRLRDGERCRDDSFFGETSHNYHKFDSEYERMGRGPGPLQERSLFEKKRGAPPSSNIEDFHGLLPKGYPHLCSICDLPVHSNKEWSQHINGASHSRRCQLLLEIYPEWNPDNDTGHTMGDPFMLQQSTNPAPGILGPPPPSFHLGGPAVGPRGNLGAGNGNLQGPRHMQKGRVETSRVVHIMDFQRGKNLRYQLLQLVEPFGVISNHLILNKINEAFIEMATTEDAQAAVDYYTTTPALVFGKPVRVHLSQKYKRIKKPEGKPDQKFDQKQELGRVIHLSNLPHSGYSDSAVLKLAEPYGKIKNYILMRMKSQAFIEMETREDAMAMVDHCLKKALWFQGRCVKVDLSEKYKKLVLRIPNRGIDLLKKDKSRKRSYSPDGKESPSDKKSKTDGSQKTESSTEGKEQEEKSGEDGEKDTKDDQTEQEPNMLLESEDELLVDEEEAAALLESGSSVGDETDLANLGDVASDGKKEPSDKAVKKDGSASAAAKKKLKKVDKIEELDQENEAALENGIKNEENTEPGAESSENADDPNKDTSENADGQSDENKDDYTIPDEYRIGPYQPNVPVGIDYVIPKTGFYCKLCSLFYTNEEVAKNTHCSSLPHYQKLKKFLNKLAEERRQKKET
# chain 2: not shown
# Variants of: B1
# Assay: co-immunoprecipitation (Ddx39b IP) followed by western blot, quantified; NSC-34 stable cell lines; four replicates; WT vs 622 p = 0.9993; read off a plot
row,Variant,ratio to parent
1,chain 1 T622A,~0.9

# Variants of: B1
# Assay: co-immunoprecipitation (Ddx39b IP) followed by western blot, quantified; NSC-34 stable cell lines; four replicates; WT vs 85: p = 0.0133; read off a plot
row,Variant,ratio to parent
1,chain 1 S85C,~3.6

# Variants of: B1
# Assay: co-immunoprecipitation (Ddx39b IP) followed by western blot, quantified; NSC-34 stable cell lines; four replicates; WT vs 154 p = 0.0760; read off a plot
row,Variant,ratio to parent
1,chain 1 P154S,~3

# Variants of: B1
# Assay: co-immunoprecipitation (Ddx39b IP) followed by western blot, quantified; NSC-34 stable cell lines; four replicates; WT vs 115: p = 0.9944; read off a plot
row,Variant,ratio to parent
1,chain 1 F115C,~0.8
